Results published in PMC3169550.
Changes are numbered by the printed parent chain. Results are given in words; binding and its absence hold for the method and conditions named. Binding seen in cells or lysates may run through a third protein. Some entries that bind do so weakly or less than the wild type. Where a sequence is shown, tags or fusion partners need not be part of it. Values belong to the molecule of their own block, whether it stands above or below them.

The chains behind the UniProt entries cited, without tags or fusion partners.
UniProt Q9QYP6: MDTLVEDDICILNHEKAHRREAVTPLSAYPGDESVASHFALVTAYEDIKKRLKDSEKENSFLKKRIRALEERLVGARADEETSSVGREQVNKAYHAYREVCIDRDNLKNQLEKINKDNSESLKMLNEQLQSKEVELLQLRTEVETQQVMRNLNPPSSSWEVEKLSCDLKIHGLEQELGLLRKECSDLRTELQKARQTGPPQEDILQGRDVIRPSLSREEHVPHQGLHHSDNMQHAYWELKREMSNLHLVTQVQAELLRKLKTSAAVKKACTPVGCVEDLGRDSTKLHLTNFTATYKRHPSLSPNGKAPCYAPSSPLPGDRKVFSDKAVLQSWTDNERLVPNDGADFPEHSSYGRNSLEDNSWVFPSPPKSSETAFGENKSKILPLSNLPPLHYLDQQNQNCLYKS
UniProt A2A9T0: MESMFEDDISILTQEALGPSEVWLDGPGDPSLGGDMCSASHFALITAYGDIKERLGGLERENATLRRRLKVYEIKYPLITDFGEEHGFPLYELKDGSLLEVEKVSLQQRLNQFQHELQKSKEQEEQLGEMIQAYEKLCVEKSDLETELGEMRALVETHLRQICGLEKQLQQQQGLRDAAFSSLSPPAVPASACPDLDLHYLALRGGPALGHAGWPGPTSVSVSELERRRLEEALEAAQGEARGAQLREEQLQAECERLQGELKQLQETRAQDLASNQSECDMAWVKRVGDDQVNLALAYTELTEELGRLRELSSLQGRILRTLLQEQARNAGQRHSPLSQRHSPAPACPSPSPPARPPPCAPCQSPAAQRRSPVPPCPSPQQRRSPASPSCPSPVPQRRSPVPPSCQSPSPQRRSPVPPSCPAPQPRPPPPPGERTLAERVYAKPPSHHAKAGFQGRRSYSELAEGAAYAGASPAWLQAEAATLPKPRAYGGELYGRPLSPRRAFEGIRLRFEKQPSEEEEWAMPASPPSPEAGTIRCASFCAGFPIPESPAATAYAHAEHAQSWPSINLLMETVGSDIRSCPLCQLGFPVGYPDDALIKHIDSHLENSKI

Legend:
Assay in all cases: co-IP; Myc-tagged TBK1 constructs coexpressed with V5-tagged adaptors in HEK293 cells; Frackelton buffer (10 mM Tris/HCl pH 7.5, 50 mM NaCl, 1% Triton X-100); anti-Myc agarose or anti-V5 agarose, 2 h at 4°C; immunoblotting with anti-Myc and anti-V5
[1] = molecular target: T1, Myc-tagged TBK1 K694E (murine) (UniProt Q9WUN2)
T1 sequence: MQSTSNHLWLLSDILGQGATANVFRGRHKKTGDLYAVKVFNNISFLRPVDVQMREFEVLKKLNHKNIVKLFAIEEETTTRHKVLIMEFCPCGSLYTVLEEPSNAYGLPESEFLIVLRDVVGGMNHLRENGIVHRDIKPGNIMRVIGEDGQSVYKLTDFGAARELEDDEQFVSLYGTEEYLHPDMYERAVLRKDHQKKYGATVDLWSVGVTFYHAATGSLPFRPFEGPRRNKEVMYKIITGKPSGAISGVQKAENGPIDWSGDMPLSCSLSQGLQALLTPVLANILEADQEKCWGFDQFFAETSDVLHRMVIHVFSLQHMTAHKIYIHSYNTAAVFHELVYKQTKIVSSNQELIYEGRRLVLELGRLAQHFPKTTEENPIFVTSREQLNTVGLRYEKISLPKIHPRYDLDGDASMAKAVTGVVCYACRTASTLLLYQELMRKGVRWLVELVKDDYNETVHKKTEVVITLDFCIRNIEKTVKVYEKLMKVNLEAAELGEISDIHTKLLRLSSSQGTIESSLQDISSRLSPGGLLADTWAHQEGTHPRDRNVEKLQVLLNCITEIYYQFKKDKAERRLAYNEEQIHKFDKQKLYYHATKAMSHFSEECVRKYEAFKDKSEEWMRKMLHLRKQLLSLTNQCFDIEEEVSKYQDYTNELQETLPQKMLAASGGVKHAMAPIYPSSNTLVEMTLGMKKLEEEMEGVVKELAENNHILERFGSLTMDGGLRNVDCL

[2] = molecular target: T2, Myc-tagged TBK1 L704A (murine) (UniProt Q9WUN2)
T2 sequence: T1 sequence with E694K, L704A

[3] = molecular target: T3, Myc-tagged TBK1 wt (murine) (UniProt Q9WUN2)
T3 sequence: T1 sequence with E694K

[4] = molecular target: T4, C-terminus of TBK1 (amino acids 621–729) fused to GFP (murine) (UniProt Q9WUN2)
T4 sequence: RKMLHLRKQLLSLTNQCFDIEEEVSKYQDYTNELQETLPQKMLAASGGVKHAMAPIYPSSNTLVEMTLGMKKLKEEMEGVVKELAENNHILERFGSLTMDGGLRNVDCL

binding [1]: binds | binding [2]: no binding | binding [3]: binds | binding [4]: binds
Molecule: V5-tagged NAP1 (from UniProt Q9QYP6 1-405)

binding [1]: no binding | binding [2]: no binding | binding [3]: binds | binding [4]: binds
Molecule: V5-tagged Sintbad (from UniProt A2A9T0 1-611)

binding [1]: no binding | binding [2]: no binding | binding [3]: binds | binding [4]: binds
B1: V5-tagged TANK (protein, UniProt P70347 1-448)
chain: MSLKRHSLRRNACHLETRAGIPTILYSDATGQRGMDKNIGEQLNRAYEAFRQACMDRDSAVRELQQKQTENYEQRIREQQEQLSFQQNLIDRLKSQLLLVDSSRDNSYGYVPLLEDSDRRKNNLTLDEPHDKVKLGTLRDKQSKVRRQEVSSGKESAKGLNIPLHHERDNIEKTFWDLKEEFHRICLLAKAQKDHLSKLNIPDIATDTQCSVPIQCTDKTEKQEALFKPQAKDDINRGMSCVTAVTPRGLGRDEEDTSFESLSKFNVKFPPMDNDSIFLHSTPEAPSILAPATPETVCQDRFNMEVRDNPGNFVKTEETLFEIQGIDPITSAIQNLKTTDKTNPSNLRATCLPAGDHNVFYVNTFPLQDPPDAPFPSLDSPGKAVRGPQQPFWKPFLNQDTDLVVPSDSDSELLKPLVCEFCQELFPPSITSRGDFLRHLNTHFNGET
